This is an account of results in the supplement of paper PMC4166925.

± gives the standard deviation of the averaged measurements. Over roughly 33,000 sequences, “E-score (dimensionless, -0.5 to 0.5)” has its median near -0.046; the highest 2% begin near 0.36. The list shows a part of the results.

In this assay the test system is T1, SpTbr T-box DNA-binding domain (GST fusion).
T1 sequence: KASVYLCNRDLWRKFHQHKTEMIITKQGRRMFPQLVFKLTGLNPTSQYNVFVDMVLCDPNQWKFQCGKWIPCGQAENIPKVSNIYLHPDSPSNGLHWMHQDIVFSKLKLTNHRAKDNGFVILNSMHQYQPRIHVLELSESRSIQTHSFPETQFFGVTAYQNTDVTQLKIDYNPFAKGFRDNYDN
Put plainly: PBM E-score of 8-mer (E-score (dimensionless, -0.5 to 0.5)); Tbr is Tbrain of the sea star Patiria miniata (Pm) or the sea urchin Strongylocentrotus purpuratus (Sp); higher = stronger binding preference; most listed sequences are background and not binding sites. The note with it: the construct has about 5 more residues each side. A digest of the protocol:
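Using the Universal PBM Analysis Suite, every ungapped 8-mer received an enrichment E-score averaged over duplicate arrays. Probe intensities came from double-stranded Universal Agilent oligonucleotide arrays incubated with 200 nM GST-fused Tbr T-box DNA-binding domain in PBS (pH 7.5). That protein was expressed in BL21 E. coli at 20 °C and purified by glutathione affinity chromatography.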
As for AAAGCTCT, the “PBM E-score of 8-mer” value is -0.125 ± 0.048.

For CTTGGCTC, the “PBM E-score of 8-mer” value is -0.22 ± 0.061. With AGCGGAGG the figure was -0.17 ± 0.0084. Take CCCCCTTA: the “PBM E-score of 8-mer” value was -0.299 ± 0.056. With AGCTTGAC the figure was -0.237 ± 0.03.

Turning to GAATCACA, the “PBM E-score of 8-mer” value amounted to 0.259 ± 0.0088. For the sequence CCCTACTC, the “PBM E-score of 8-mer” value is -0.0057 ± 0.027. For AATCTACA, the “PBM E-score of 8-mer” value was -0.0319 ± 0.069. As for AGTGACAC, the “PBM E-score of 8-mer” value amounted to 0.435 ± 0.0092. Consider CAGACGAG, for which the “PBM E-score of 8-mer” value was -0.296 ± 0.057. With CGCTTAAC the figure was 0.0996 ± 0.0031; with CCGTATCG, 0.0597 ± 0.01. As to CCGCGCAG, the “PBM E-score of 8-mer” value worked out at 0.0561 ± 0.029. To GGGCCACA belongs 0.121 ± 0.046; to CCGTCGTC, 0.0752 ± 0.061; to ATTCGCGC, 0.387 ± 0.012.

GACCGATC: the “PBM E-score of 8-mer” value is -0.0366 ± 0.053.

For ATTGAATG, the “PBM E-score of 8-mer” value is -0.229 ± 0.048.

Regarding AAGGTCCA, the “PBM E-score of 8-mer” value is -0.186 ± 0.012. On to GTGTTGAA, for which the “PBM E-score of 8-mer” value was determined as 0.361 ± 0.017. AGAAGCCC: the “PBM E-score of 8-mer” value was -0.186 ± 0.019. With CATAGGTC the figure was -0.238 ± 0.0045; with GGGCCCCA, -0.115 ± 0.049; with CAAGTACG, -0.0184 ± 0.033. With AGTCCTCA, the “PBM E-score of 8-mer” value was -0.135 ± 0.014.

Take ATCCTGCA: the “PBM E-score of 8-mer” value is -0.193 ± 0.028. CGCAGACG: the “PBM E-score of 8-mer” value was -0.0251 ± 0.095.

With GGTGCTCA, the “PBM E-score of 8-mer” value is -0.00137 ± 0.08. As for CGGACCGC, the “PBM E-score of 8-mer” value is -0.0422 ± 0.0036. With AATCTAGA the figure was 0.183 ± 0.042; with AGAAGCAC, -0.0907 ± 0.041. Take ATCTAACG: the “PBM E-score of 8-mer” value turned out to be 0.0264 ± 0.053. AGTAGGAC: the “PBM E-score of 8-mer” value is -0.185 ± 0.038.

Turning to TGCCACCA, the “PBM E-score of 8-mer” value was found to be 0.256 ± 0.03. As to ACGTTAAG, the “PBM E-score of 8-mer” value was -0.234 ± 0.11.

For ACTGATAG, the “PBM E-score of 8-mer” value is -0.0143 ± 0.077.

As for ACCTAAGC, the “PBM E-score of 8-mer” value is -0.117 ± 0.015. With CGGATACC the figure was -0.173 ± 0.0035. With AGATCAGA the figure was -0.33 ± 0.011; with CGTTCTCC, -0.118 ± 0.067. To ACGTCCAC belongs -0.0232 ± 0.067.

Consider GAACCAAA, for which the “PBM E-score of 8-mer” value was -0.101 ± 0.011. With AGCATAAA, the “PBM E-score of 8-mer” value was -0.0913 ± 0.029. With AAAGGTAT the figure was -0.0219 ± 0.0083; with AGCAGTCG, -0.113 ± 0.015. Consider AGCCACCC, for which the “PBM E-score of 8-mer” value was -0.17 ± 0.06. With ACCGAAAT the figure was -0.102 ± 0.1; with CAACTAAG, -0.0731 ± 0.039. As to GCTGCGCC, the “PBM E-score of 8-mer” value was -0.0003 ± 0.065. With TTACGTAA the figure was -0.125 ± 0.0026; with AGCCCTTC, -0.207 ± 0.033; with CAGCTGCA, -0.0417 ± 0.02. With CAAGTCTC the figure was 0.167 ± 0.046. Consider AGCCGACT, for which the “PBM E-score of 8-mer” value is -0.187 ± 0.025. To TCTGGGCA belongs -0.114 ± 0.033. To ACAAACAG belongs -0.00793 ± 0.042; to GATAAGAA, 0.0672 ± 0.0061; to TGAAGACA, 0.0696 ± 0.0097. To CGCGCCGA belongs 0.157 ± 0.041. For CCCGGCCA, the “PBM E-score of 8-mer” value was -0.237 ± 0.019. Consider CGAGCATC, for which the “PBM E-score of 8-mer” value is -0.0427 ± 0.029. With AGCCGTAC the figure was -0.274 ± 0.019; with AGAACGAA, -0.0336 ± 0.027. As for AAGATAAT, the “PBM E-score of 8-mer” value is -0.162 ± 0.066.

Consider GCGGTCAA, for which the “PBM E-score of 8-mer” value was -0.103 ± 0.051. To CCGCGGTC belongs -0.173 ± 0.011; to GCCCTAGC, -0.269 ± 0.04; to CATATTTA, -0.0944 ± 0.096.

Take TCACGTCA: the “PBM E-score of 8-mer” value turned out to be 0.115 ± 0.019. To TTTGCAAA belongs -0.08 ± 0.063.

Consider GTCTAGCA, for which the “PBM E-score of 8-mer” value worked out at 0.0552 ± 0.044. With AGTGGGGC the figure was 0.0519 ± 0.051; with GAAGTGCA, 0.147 ± 0.021; with TAAAGTGA, 0.152 ± 0.0019. Regarding ACGGTAAA, the “PBM E-score of 8-mer” value was -0.1 ± 0.011. For the sequence ACTCCAAG, the “PBM E-score of 8-mer” value was -0.0768 ± 0.021. Turning to GAGTTGCC, the “PBM E-score of 8-mer” value stood at 0.0808 ± 0.041. With ACCCTTGA the figure was -0.0396 ± 0.029; with ACAATGCG, 0.222 ± 0.025; with ACAGTGTA, 0.0565 ± 0.017. On to AACTGTCA, for which the “PBM E-score of 8-mer” value was found to be 0.248 ± 0.051. With ACCTGCAG the figure was 0.0801 ± 0.0056. On to AGTTGCGA, for which the “PBM E-score of 8-mer” value worked out at 0.3999 ± 0.00081. Turning to CATCTCGC, the “PBM E-score of 8-mer” value is 0.138 ± 0.024.

For the sequence AGCTAGTC, the “PBM E-score of 8-mer” value stood at 0.0361 ± 0.015. With CCCTCGAG the figure was -0.187 ± 0.011; with CCTATGAG, -0.125 ± 0.036.

On to AAGACGTC, for which the “PBM E-score of 8-mer” value was -0.135 ± 0.13. With AGATGACG the figure was 0.125 ± 0.029.

In the case of AGAGCGAC, the “PBM E-score of 8-mer” value was 0.00812 ± 0.031. With AAAAACGC the figure was 0.0442 ± 0.085; with ACTCTGTC, -0.0422 ± 0.0026; with GCCACGAA, 0.00399 ± 0.009.

In the case of ATACTTTC, the “PBM E-score of 8-mer” value is -0.0159 ± 0.035. On to CTTGATAA, for which the “PBM E-score of 8-mer” value was determined as 0.0356 ± 0.11. With GTCAGCAC the figure was 0.273 ± 0.077. Regarding CGCTCGCA, the “PBM E-score of 8-mer” value was determined as 0.336 ± 0.028. For the sequence AAAACAGA, the “PBM E-score of 8-mer” value is -0.187 ± 0.057. To ACCCCCAT belongs -0.079 ± 0.0034; to ATATGTCC, -0.286 ± 0.032; to CTTCCTAA, -0.0989 ± 0.16. Take CCGCACTA: the “PBM E-score of 8-mer” value was determined as 0.0434 ± 0.011. To CCGAACCC belongs -0.361 ± 0.024. With CGTGGGAG, the “PBM E-score of 8-mer” value is -0.0578 ± 0.057. To TAATCCAA belongs -0.0317 ± 0.01. With CCCCAAAC the figure was -0.1631 ± 0.00051. With CCCTCTCA the figure was 0.0515 ± 0.007; with ACTCGAAG, 0.115 ± 0.014; with CCCGAGTA, -0.128 ± 0.028.
